In US20240043495A1, “DSG2 COMPOSITIONS AND METHODS FOR THE TREATMENT OF COVID-19” (priority 2020, published 2024):

What was measured:
[1] = system: anti-DSG2 antibodies in sera of post-COVID-19 patients; test: Electrochemical immunoassay: blocking of post-COVID-19 patient sera binding to the DSG2 extracellular domain; parameters: species or system human; conditions: fusion polypeptide 10 μg/mL; post-COVID-19 patient sera 10% (v/v); FIG. 3
[2] = system: ARVC serum (serum obtained from ARVC patients); test: Anti-DSG2 antibody Meso Scale Discovery (MSD) blocking assay, ARVC serum; format: binding, human; conditions: for % inhibition: fraction C
Protocol: (§1) The DSG2 fusion polypeptides were tested for the ability to block anti-DSG2 antibody by an anti-DSG2 antibody Meso Scale Discovery (MSD) assay. […] The DSG2 fusion polypeptides were subjected to size exclusion chromatography and different elution fractions were examined. […] As shown in Table 9 and FIG. 4B, FIG. 4C, and FIG. 4D, enriching for fraction C improved the ability of the DSG2 fusion polypeptides to block ARVC patient serum.

anti-DSG2 antibody = test: Anti-DSG2 antibody Meso Scale Discovery (MSD) blocking assay, anti-DSG2 antibody controls; format: binding; conditions: for % inhibition: fraction C
Protocol: as §1

[3] = Dynamic light scattering (DLS) of DSG2 fusion polypeptides; format: physicochemical
Excerpt: 6 candidates were compared to the reference sample.

[4] = Melting temperature Tm of DSG2 fusion polypeptides; format: physicochemical
Excerpt: As the temperature increased, the aggregates began to move, unfold and spread apart.

[5] = system: anti-DSG2 antibodies in sera of ARVC patients; test: Electrochemical immunoassay: blocking of ARVC patient sera binding to the DSG2 extracellular domain; parameters: species or system human; conditions: fusion polypeptide 5 μg/mL; ARVC patient sera 10% (v/v); FIG. 8
[6] = system: human iPSC cardiomyocytes; test: iPSC-derived cardiomyocyte MEA assay, cell index; format: cell-based; conditions: addition of DSG2FP #1; FIG. 6
[7] = system: human iPSC cardiomyocytes; test: CiPA multielectrode array (MEA) assay, cardiomyocyte sodium spike; format: cell-based; conditions: 1.1 μg/mL DSG2FP #1; anti-DSG2 antibodies 0.5 μg/mL; FIG. 5A
Protocol: To determine the effect of anti-DSG2 antibodies in cardiomyocytes, the cardiac in vitro proarrhythmia (CiPA) assay was performed (Sager et al. Am Heart J 2014; 167:292-300; the contents of which are herein incorporated by reference in its entirety). CiPA is envisioned to consist of four components: (1) an evaluation of the effects of test agents on cardiac ion channel assays; (2) in silico modeling of the cardiac action potential based on the ion channel results to integrate the data with cardiac function; (3) experimental measurement of test agent effects in human ventricular myocytes to confirm the modeling result; and (4) scoring the results. […] The sodium spike quantified below is a measurement of the specific sodium channel current in the cardiomyocyte and is also described in Blinova K, et al. Cell Rep. […] The parameters evaluated include measuring a change in the spike in the component of electrical signal propagation (e.g. sodium spike) and cell index—a function of cell impedance and cell number. […]
Commercially available anti-DSG2 antibodies were tested in the cardiomyocyte CiPA assay. […] The voltage (μV) is measured at time intervals of 0, 1 hour, 12 hours, 24 hours, 48 hours, 72 hours, and 96 hours. […]

[8] = system: anti-DSG2 antibodies in ARVC patient serum samples with strong clinical data; test: Anti-DSG2 antibody MSD-based detection assay on ARVC patient serum, blocked by competing DSG2 polypeptide; format: binding, human; conditions: competing DSG2 polypeptide added

B1: DSG2FP#1 (protein)
chain: AWITAPVALREGEDLSKKNPIAKIHSDLAEERGLKITYKYTGKGITEPPFGIFVFNKDTGELNVTSILDREETPFFLLTGYALDARGNNVEKPLELRIKVLDINDNEPVFTQDVFVGSVEELSAAHTLVMKINATDADEPNTLNSKISYRIVSLEPAYPPVFYLNKDTGEIYTTSVTLDREEHSSYTLTVEARDGNGEVTDKPVKQAQVQIRILDVNDNIPVVENKVLEGMVEENQVNVEVTRIKVFDADEIGSDNWLANFTFASGNEGGYFHIETDAQTNEGIVTLIKEVDYEEMKNLDFSVIVANKAAFHKSIRSKYKPTPIPIKVKVKNVKEGIHFKSSVISIYVSESMDRSSKGQIIGNFQAFDEDTGLPAHARYVKLEDRDNWISVDSVTSEIKLAKLPDFESRYVQNGTYTVKIVAISEDYPRKTITGTVLINVEDINDNCPTLIEPVQTICHDAEYVNVTAEDLDGHPNSGPFSFSVIDKPPGMAEKWKIARQESTSVLLQQSEKKLGRSEIQFLISDNQGFSCPEKQVLTLTVCEVLHGSGCREAQHDSYVGIEGRM[sequence of human IgG1 Fc omitted]
[1]
  blocking activity (in words): best blocking activity
[2]; MSD assay, FIG. 4A
  ability to bind and block serum obtained from ARVC patients: able to bind and block
[2]; sample: ARVC serum 1
  % inhibition: 96.7%
[2]; sample: ARVC serum 2
  % inhibition: 82.9%
[2]; sample: ARVC serum 3
  % inhibition: 95.8%
[2]; sample: ARVC serum 4
  % inhibition: 95.7%
[2]; sample: ARVC serum 5
  % inhibition: 93.1%
anti-DSG2 antibody; MSD assay
  ability to bind to and block anti-DSG2 antibody: able to bind and block anti-DSG2 antibody
anti-DSG2 antibody; sample: Anti-DSG2 antibody (200 ng/mL) control
  % inhibition: 63.8%
anti-DSG2 antibody; sample: Anti-DSG2 antibody (1000 ng/mL) control
  % inhibition: 88.4%
anti-DSG2 antibody; sample: no antibody control
  % inhibition: 4.8%
[3]
  Peak 1 mass %: ~97%
  Peak 1 mode diameter: 18.13 nm
[3]; polymer distribution index
  PDI: 0.33
[4]
  Tm1: 49.9 °C
  Tm2: 64.1 °C
  Tm3: 77.5 °C
[5]
  blocking activity (in words): best blocking activity
[6]
  reversal of effects of anti-DSG2 antibodies on cell index: reversed; also recorded: completely blocks the effect of the anti-DSG2 antibodies
[7]
  rescue of the effect of anti-DSG2 antibodies on cardiomyocyte sodium spike: rescued; also recorded: completely blocks the effect of the anti-DSG2 antibodies on the sodium spike
[8]
  blocking of assay signal from ARVC patient serum samples: blocked

“Also recorded” adds a separate entry of the source.
